Data published in PubChem BioAssay AID662 (National Center for Advancing Translational Sciences (NCATS), 2007).
Hit rate of the full screen: of about 71,000 compounds, about 1,800 (2.5%) were called active. The shares of active, inactive and inconclusive entries below differ from those in the screen. Calls come from the whole dose curve; as a rule, active = well fitted activation curve with a large enough effect in the signal ratio, with a control signal flat (not every such curve was filed as active); inconclusive = small, poorly fitted or top-dose-only effect, or effect the other way, or a change in a side signal; inactive = flat fitted curve, though single readings scatter; the % refers to the signal ratio. Potencies beside an inconclusive call are fits to weak or partial responses and may not hold up.

test: Cell signaling CRE-BLA (Fsk stim); details: CHO CRE-bla reporter (cAMP response element driving beta-lactamase), forskolin EC10, beta-lactamase ratio; activity change, negative = inhibition: at 38.2 µM (top of the series) unless noted; for activity change, negative = inhibition: % of control where 0% means no effect
Outline: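 Cells were plated overnight at 37 °C, exposed to compound titrations plus EC10 NKH 477 for 3 h, then given CCF4 dye for 2 h at room temperature. Blue/green (460/530 nm) ratio was converted to %Activity and AC50 values calculated.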
Potency is the fitted concentration of half-maximal effect; tags give direction and shape of the fitted curve.

SMILES	Potency	activity change, negative = inhibition
COc1ccc(OC(C)=O)c(C2c3cc(OC)c(OC)cc3CCN2C(C)=O)c1 (stereo not drawn)	inconclusive: 10 µM [rising, single point]	–
CSc1cc2c(cc1C(F)(F)F)N(C(=O)Nc1cccnc1)CC2	–	inactive: -0.0385%
O=C(CN1C(=O)CSC1=O)Nc1ccc2c(c1)OCCO2	–	inconclusive: -26%
O=C(Nc1c(C(=O)O)[nH]c2ccccc12)NC1CCCCC1	–	inactive: 7.83%
Cc1cc(=O)n2nc(N3CCC(C(=O)N4CCN(Cc5ccccc5)CC4)CC3)sc2n1	–	inconclusive: 6.59%
CCOc1ccccc1Oc1coc2cc(O)ccc2c1=O	–	inconclusive: 4.57%
CCOC(=O)c1c(NC(=O)CSc2nc(C)cc(C)c2C#N)sc(C(C)=O)c1C	–	inactive: 13.1%
COC(=O)c1ccccc1NC(=O)c1ccco1	inconclusive: 10 µM [rising, partial curve]	–
COc1cc(C)c(S(=O)(=O)Nc2ccc(CC(=O)O)cc2)cc1C	–	inconclusive: -2.6%
COc1ccc(Br)cc1C(=O)Nc1cccc(NC(=O)c2ccco2)c1	inconclusive: 0.0631 µM [rising, full curve]	–
CCCCCCNC(=O)c1c(O)c2cccc3c2n(c1=O)CCC3	–	inactive: 5.39%
CCCC(=O)Nc1cc(OCC)c(NC(=O)NC2CCCCC2)cc1OCC	–	inconclusive: 2.31%
OC(c1ccccc1)c1nc2ccccc2s1 (stereo not drawn)	inconclusive: 0.00794 µM [rising, full curve, poor fit]	–
O=C(Nc1ccc(-c2nc3ccccc3o2)c(O)c1)c1cc(-n2cnnc2)ccc1Cl	inconclusive: 12.6 µM [rising, partial curve]	–
Cc1cccc(C)c1NC(=O)CSc1nnc(-c2ccoc2C)n1C	–	inactive: 2.23%
Nc1c(C(=O)NCc2cccnc2)sc(=S)n1-c1ccccc1	–	inactive: 0.461%
COc1ccccc1NC(=O)C1CCN(c2ncccn2)CC1	–	inconclusive: -4.98%
Cc1cccc(N2CCN(C(=O)c3ccc(CS(=O)(=O)c4ccccc4C)o3)CC2C)c1 (stereo not drawn)	inconclusive: 3.16 µM [falling, single point]	–
CC1Cc2cc(C(=O)O)ccc2O1 (stereo not drawn)	–	inactive: -2.28%
CCC(=O)Nc1ccc(NC(=O)c2ccco2)c(OC)c1	–	inactive: -2.49%
Cc1ccsc1C(=O)OCC(=O)Nc1sccc1C(N)=O	inconclusive: 2.51 µM [rising, partial curve]	–

SMILES	Potency	activity change, negative = inhibition
CCNC(=O)Nc1cc2nc(C)n(Cc3ccc(Br)cc3)c2nc1C	–	inactive: -4.72%
Cc1cccc(NC(=O)c2ccccn2)c1C	–	inconclusive: -14.4%
O=C(CSc1nnc(-c2ccc(Br)cc2)o1)Nc1cccc2ccccc12	–	inactive: -4.32%
Cc1cccc(OCCCC(=O)O)c1	–	inconclusive: 1.27%
COc1ccc(-c2nnnn2-c2ccccc2OC)cc1	–	inconclusive: -9.71%
CN(C)c1ncc(C(=O)O)cn1	–	inactive: 9.28%
COC(=O)CSc1nnc(-c2ccco2)n1Cc1ccco1	–	inconclusive: -0.432%
Cc1cc2cc(CN(CCCN3CCOCC3)C(=O)NC3CCCCC3)c(=O)[nH]c2cc1C	–	inactive: 18.8%
Brc1ccccc1Cn1c(-c2cncs2)nc2ccccc21	inconclusive: 1.58 µM [rising, partial curve]	–
Cc1c(NS(=O)(=O)c2ccc3[nH]c(=O)[nH]c3c2)c(=O)n(-c2ccccc2)n1C	–	inactive: -2.03%
O=C(c1ccco1)N1CCN(c2ccc(Cl)c(Cl)c2)CC1	–	inconclusive: -13.4%
CCc1nnc(NC(=O)c2cnccn2)s1	–	inactive: -5.1%
CS(=O)(=O)N1CCC2(CCN(Cc3ccc(C#N)cc3)CC2)CC1	–	inactive: 7.01%
Cn1c(=O)c2c(ncn2Cc2cc(-c3ccccc3)no2)n(C)c1=O	inconclusive: 10 µM [rising, partial curve]	–
CC1(C)CC(=O)c2c(nc3ccccc3c2N)C1	–	inactive: 28.9%
Cc1ccsc1C(=O)OCC(=O)c1cc(C)n(CC2CCCO2)c1C (stereo not drawn)	–	inconclusive: -14.5%
Cc1noc(C)c1C(=O)N1CCC2(CCCN(C(=O)Nc3cccc(F)c3)C2)CC1	–	inactive: 1.94%
CN(C)c1ccc(/C=C/C(O)=C2/C(=O)N(C)C3(C)CC2c2ccccc2O3)cc1 (stereo not drawn)	inconclusive: 10 µM [rising, partial curve]	–
CCOC(=O)N1CCN(c2cc(NCCC(=O)O)c3c4c(onc24)-c2ccccc2C3=O)CC1	inconclusive: 15.8 µM [rising, single point]	–
O=C(c1cccc(F)c1)n1nnc2ccccc21	–	inconclusive: -14.4%
COC(=O)C1CCC(C)(C(=O)Nc2ccccc2)C1(C)C (stereo not drawn)	–	inconclusive: -5.4%

SMILES	Potency	activity change, negative = inhibition
C[C@@H](C(=O)Nc1ccc2ccccc2c1)[C@H]1C[C@]1(C)[C@H](NC(=O)c1cnccn1)c1ccccc1	–	inactive: -9.32%
COc1ccc2cc(CN(Cc3ccco3)Cc3nnnn3C3CCCCC3)c(=O)[nH]c2c1	inconclusive: 25.1 µM [rising, single point]	–
Cc1cccc(NC(=O)c2cc3n(n2)C(C(F)(F)F)CC(c2ccc4c(c2)OCO4)N3)c1 (stereo not drawn)	–	inconclusive: -21.3%
CC(=O)[C@H](CC(C)C)NC(=O)[C@@H](CC(C)C)NC(=O)[C@H](CC(C)C)NC(=O)OCc1ccccc1	inconclusive: 5.01 µM [falling, partial curve]	–
Cn1nc(-c2ccccc2)c2nc3ccccc3nc21	inconclusive: 25.1 µM [falling, single point]	–
CCC/C=C(\CCC)C(NS(=O)(=O)c1ccc(C(F)(F)F)cc1)c1ccc(-c2ccccc2)cc1 (stereo not drawn)	–	inactive: 27.8%
O=C(O)CC(CC(=O)O)n1cccc1	–	inactive: 0.91% [at 7.6 µM]
COc1ccccc1-c1ccc2ncnc(N(C)Cc3ccco3)c2c1	inconclusive: 3.16 µM [rising, single point]	–
Cn1cnc2c1c(=O)n(Cc1ccccc1)c(=O)n2C	inconclusive: 12.6 µM [rising, single point]	–
CCOc1ccccc1NC(=O)Cn1nnc(-c2ccc(OCC)c(OCC)c2)n1	inconclusive: 1.26 µM [rising, full curve, poor fit]	–
C[C@H]1CN(CCO)CCN1c1ccccc1	–	inactive: -1.56% [at 7.6 µM]
CC1(C)CC(=O)C=C(Nc2cc(-c3ccccc3)[nH]n2)C1	–	inactive: -9.55%
O=c1c(CCc2ccccc2)nc2cnc(N3CCNCC3)nc2n1Cc1cccs1	active: 12.6 µM	–
CCOC(=O)N1CCN(C(=O)c2ccc3c(=O)n(-c4ccc(OC)cc4OC)c(=S)[nH]c3c2)CC1	–	inconclusive: 8.22%
Cc1cccc(-n2nnc(C(=O)NC3CCCc4ccccc43)c2N)c1 (stereo not drawn)	–	inconclusive: 8.3%
CCN1C(=O)c2ccccc2S(=O)c2ccc(C(=O)NC3CC3)cc21 (stereo not drawn)	inconclusive: 12.6 µM [rising, single point]	–
N#CC1=C(N)SC(N)=C(C#N)C1c1c(Cl)cccc1Cl	–	inactive: -5.93%
CCOC(=O)NC(Nc1nnc(SCC)s1)(C(F)(F)F)C(F)(F)F	–	inconclusive: 3.29% [at 7.6 µM]
COC(=O)c1ccc2c(c1)SC1=C(CCCC1=O)N2	–	inactive: 5.48%
Cc1cccc2cc(CN(Cc3ccco3)C(=O)c3ccncc3)c(=O)[nH]c12	–	inactive: -2.29%
CCOC(=O)c1ccc(NC(=O)c2cccc(S(=O)(=O)N3CCOCC3)c2)cc1	–	inactive: -8.8%

SMILES	Potency	activity change, negative = inhibition
O=C1CN(CC(=O)N2CCOCC2)c2ccccc2O1	–	inconclusive: -1.34%
Cc1ccc(-n2nc3ccc(N)cc3n2)cc1	inconclusive: 10 µM [rising, partial curve]	–
COc1ccc(C2C(=O)N(C3CCCCC3)CC(=O)N2CCc2ccccc2)cc1OC (stereo not drawn)	–	inactive: 4.88%
O=C1N=C(c2ccccc2)C(c2ccccc2)N1 (stereo not drawn)	inconclusive: 3.98 µM [rising, partial curve]	–
Cn1c(SCc2nc3ccccc3c(=O)[nH]2)nnc1-c1ccco1	–	inconclusive: 18%
Cc1onc(-c2ccccc2)c1C(=O)Nc1nc(-c2cc(F)ccc2F)cs1	inconclusive: 3.16 µM [rising, partial curve]	–
CCOC(=O)c1c(N)n(CCOC(=O)c2cccs2)c2nc3ccccc3nc12	active: 10 µM	–
Cn1nc(CC(=O)Nc2cccnc2N2CCOCC2)c2ccccc2c1=O	–	inactive: 4.96%
O=c1[nH]c(SCc2ccccc2[N+](=O)[O-])nc2nc[nH]c12	–	inactive: -4.7% [at 7.6 µM]
COCCn1nnnc1C(c1ccccc1OC)N1CCN(c2ccccc2F)CC1 (stereo not drawn)	–	inactive: -11.4%
CC[C@H]1C(=O)OC[C@@H]1Cc1cncn1C	–	inconclusive: -4.16%
C=CCn1c(=O)/c(=C/c2cc(OC)c(OC)c(OC)c2)s/c1=C(/C#N)c1nc2ccccc2n1C	active: 1 µM	–
COc1ccc(Oc2ncc3ncc(=O)n(Cc4cccc(OC)c4)c3n2)cc1	inconclusive: 20 µM [rising, single point]	–
Cc1onc(-c2ccccc2Cl)c1C(=O)N[C@H]1C(=O)N2[C@H]1SC(C)(C)[C@H]2C(=O)O	–	inactive: -2.12% [at 17.1 µM]
COc1ccc(S(=O)(=O)N2CCCC(C(=O)NCc3ccncc3)C2)cc1Cl (stereo not drawn)	inconclusive: 1.58 µM [falling, full curve, poor fit]	–
O=C(NCCCN1CCCC1)C1CCN(C(=O)c2cc3sccc3n2Cc2ccc(F)cc2)CC1	inconclusive: 20 µM [falling, single point]	–
C=CCN1C(c2ccccc2)=CS/C1=C(\C#N)c1nnc2n1CCCCC2	inconclusive: 3.16 µM [falling, single point]	–
Oc1c(C(O)(c2ccccc2)c2ccc3ccccc3c2O)ccc2ccccc12	–	inactive: -10.8% [at 7.6 µM]
FC(F)(F)c1cc(-c2ccccc2)nc(NCC2CCCO2)n1 (stereo not drawn)	inconclusive: 3.98 µM [rising, partial curve]	–
Cc1ccc(S(=O)(=O)N2CCN(C(=O)CN3CCN(C)CC3)C2)cc1	–	inconclusive: 16.5%
